# The whole screen tested about 39,000 compounds, of which about 220 (0.56%) showed activity. The list shows a part of the results.
# System: Escherichia coli K-12 BW25113
# Assay: relative growth (OD600 normalised to plate interquartile mean) (fraction); higher = less growth inhibition, active = 0.2 or less
# Conditions: 50 µM; LB; incubation time: overnight (16-24 h)
# 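Note: static incubation at 37 °C against the wild-type strain, values averaged over two biological replicates.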
row,SMILES,relative growth
1,C[C@@H]1CCCCO[C@@H](CN(C)C(=O)Nc2ccc3c(c2)OCO3)[C@H](C)CN([C@H](C)CO)C(=O)c2cc(NS(=O)(=O)c3ccccc3)ccc2O1,inactive: 1.04
2,C[C@H](CO)N1C[C@H](C)[C@@H](CN(C)Cc2ccc(Oc3ccccc3)cc2)Oc2ccc(NS(=O)(=O)c3ccccc3)cc2C1=O,inactive: 0.971
3,COc1ccc(S(=O)(=O)N(C)C[C@@H]2OCCCC[C@H](C)Oc3ccc(NC(=O)CCC(F)(F)F)cc3C(=O)N([C@@H](C)CO)C[C@@H]2C)cc1,inactive: 0.989
4,COc1ccc2c3c([nH]c2c1)[C@H](CO)N(C[C@]13CCN(CC1)S(=O)(=O)c1cn(cn1)C)C(=O)Nc1ccc(cc1)F,inactive: 0.992
5,O=C(CCCCCNC(=O)OC[C@]12N=C3SCC(=O)N3[C@H](c3ccccc3O1)[C@H]2COC(=O)c1ccccc1)NO,inactive: 0.996
6,COc1ccc(NC(=O)Nc2cccc3c2O[C@@H](CN(C)Cc2ccc(Cl)c(Cl)c2)[C@H](C)CN([C@@H](C)CO)C3=O)cc1,inactive: 1.03
7,C[C@H](CO)N1C[C@H](C)[C@H](CN(C)S(C)(=O)=O)Oc2cc(C#Cc3ccc(F)cc3)ccc2S1(=O)=O,inactive: 1.01
8,CON=C(C(=O)NC1C(=O)N2C(C(=O)O)=C(CSC(=O)c3ccco3)CSC12)c1csc(N)n1.Cl (configuration not stated),active: 0.0447
9,Cc1noc(C)c1S(=O)(=O)N(C)C[C@H]1OCCCC[C@H](C)Oc2ccc(NC(=O)Nc3ccc(C(F)(F)F)cc3)cc2C(=O)N([C@H](C)CO)C[C@H]1C,inactive: 0.975
10,COCC(=O)Nc1ccc2c(c1)OC[C@H](C)N(Cc1ccccc1OC)C[C@H](C)[C@@H](OC)CN(C)C2=O,inactive: 0.945
11,COc1ccc(cc1)S(=O)(=O)N1CC[C@]2(CC1)CN([C@@H](CO)c1c2c2ccc(cc2n1C)OC)C(=O)CN(C)C,inactive: 1.03
12,Cc1noc(C)c1NC(=O)N(C)C[C@H]1OCCCC[C@@H](C)Oc2ccc(NS(=O)(=O)c3ccc(F)cc3)cc2C(=O)N([C@@H](C)CO)C[C@H]1C,inactive: 0.999
13,Cc1noc(C)c1S(=O)(=O)Nc1ccc2c(c1)C(=O)N([C@H](C)CO)C[C@H](C)[C@H](CN(C)CC1CC1)O2,inactive: 1.01
14,O=C(C[C@H]1C[C@@H]2c3cc(NC(=O)Nc4ccc(C(F)(F)F)cc4)ccc3O[C@@H]2[C@H](CO)O1)NCCc1ccccc1,inactive: 1.02
15,COc1ccc(S(=O)(=O)N(C)C[C@H]2OCCCC[C@@H](C)Oc3ccc(NC(=O)c4ccccc4)cc3C(=O)N([C@@H](C)CO)C[C@H]2C)cc1,inactive: 1.02
16,Cc1ccc(S(=O)(=O)N(C)C[C@H]2Oc3ncc(C#CCC(C)C)cc3C(=O)N([C@@H](C)CO)C[C@H]2C)cc1,inactive: 0.977
17,COc1ccc(NC(=O)N(C)C[C@@H]2OCCCC[C@@H](C)Oc3ccc(NC(=O)Nc4ccc(C(F)(F)F)cc4)cc3C(=O)N([C@@H](C)CO)C[C@H]2C)cc1,inactive: 1.04
18,COc1ccc(NC(=O)N(C)C[C@H]2Oc3ncc(C#CC(C)C)cc3C(=O)N([C@H](C)CO)C[C@H]2C)cc1,inactive: 1.02
19,OC[C@H]1CCCN1CC1CC1,inactive: 1.01

row,SMILES,relative growth
1,Cc1noc(C)c1S(=O)(=O)Nc1ccc2c(c1)C(=O)N([C@@H](C)CO)C[C@@H](C)[C@@H](CN(C)CC1CCCCC1)OCCCC[C@@H](C)O2,inactive: 1.04
2,CCCNC(=O)N1C[C@]2(CN(C2)S(=O)(=O)c2ccc(cc2)OC)c2c(n(c3cc(ccc23)OC)C)[C@@H]1CO,inactive: 1.01
3,C[C@@H]1CN([C@@H](C)CO)C(=O)Cc2cc(NS(=O)(=O)c3ccc(Cl)cc3)ccc2O[C@H]1CN(C)S(=O)(=O)c1cn(C)cn1,inactive: 0.982
4,CCC(CCC(C)C1CCC2C3CCC4CC(O)CCC4(C)C3CCC12C)C(C)C (configuration not stated),inactive: 0.904
5,C=C[C@H]1[C@H](O[C@H]2O[C@@H](CO)[C@@H](O)[C@@H](O)[C@@H]2O)OC=C(C(=O)OC)[C@H]1CCOC(=O)c1cc(O)c(O)c(O)c1,inactive: 1
6,C[C@@H]1CN([C@@H](C)CO)C(=O)c2cc(NC(=O)Nc3ccc(C(F)(F)F)cc3)ccc2O[C@@H]1CN(C)C(=O)Nc1cccc2ccccc12,inactive: 0.999
7,C[C@@H]1CN([C@H](C)CO)C(=O)c2cc(-c3cccnc3)cnc2O[C@@H]1CN(C)C(=O)Nc1ccc2c(c1)OCO2,inactive: 1.01
8,COc1ccsc1CN,inactive: 0.97
9,O=C(C[C@@H]1C[C@@H]2c3cc(NC(=O)NC4CCCC4)ccc3O[C@@H]2[C@H](CO)O1)NCCN1CCCCC1,inactive: 0.984
10,Cc1noc(C)c1NC(=O)N(C)C[C@@H]1Oc2ccc(NC(=O)CCCN(C)C)cc2C(=O)N([C@H](C)CO)C[C@@H]1C,inactive: 1.01
11,CC1CCN(C(=O)N2c3ccccc3Sc3ccccc32)CC1,inactive: 0.986
12,C[C@H](CO)N1C[C@H](C)[C@H](CN(C)Cc2ccc(Cl)c(Cl)c2)Oc2ccc(NC(=O)Cc3cn(C)c4ccccc34)cc2CC1=O,inactive: 1.06
13,COc1ccc(C[C@H]2c3cc(OC)c(OC)cc3CC[N@+]2(C)CCC(=O)OCCCCCOC(=O)CC[N@+]2(C)CCc3cc(OC)c(OC)cc3[C@@H]2Cc2ccc(OC)c(OC)c2)cc1OC,inactive: 0.719
14,C[C@@H]1CN([C@@H](C)CO)C(=O)c2cc(-c3ccc(F)cc3)cnc2O[C@H]1CN(C)C(=O)Cc1ccccn1,inactive: 1.02
15,C[C@H](CO)N1C[C@H](C)[C@H](CN(C)Cc2cccc(O)c2)OCc2ccccc2-c2c(n(C)c3ccccc23)C1=O,inactive: 0.974
16,O=C(O)/C=C/c1ccc(O[C@@H]2O[C@H](CO)[C@@H](O)[C@H](O)[C@H]2O)cc1,inactive: 1.02
17,CNC[C@H]1OCCCC[C@H](C)Oc2ccc(NS(=O)(=O)c3c(C)noc3C)cc2C(=O)N([C@H](C)CO)C[C@H]1C,inactive: 1
18,C[C@@H]1CCCCO[C@@H](CN(C)CC2CC2)[C@@H](C)CN([C@H](C)CO)C(=O)c2cc(NC(=O)CCC(F)(F)F)ccc2O1,inactive: 0.982

# From the supplement of paper PMC9446081
